The values that follow come from the supplement of paper PMC11417369.

± gives the standard deviation of the averaged measurements. Some of the results follow.

The subject of this experiment is PfAP2-G AP2 domain (GST-tagged). Description: gcPBM binding intensity (ln(normalized median fluorescence intensity)); higher = stronger DNA binding. The procedure, abridged:
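Binding of GST-tagged P. falciparum DNA-binding domains, expressed in E. coli and used at about 25 μg on average, was carried out for 1 h in 1× PBS containing 1% milk, 0.2 mg/ml BSA, 0.5% salmon testes DNA and 0.03% Triton X-100. The target was an Agilent 4 × 180k array of primer-extended double-stranded 36-bp intergenic genomic probes plus negative controls, read with Alexa488 anti-GST antibody at 488 nm. Binding intensity is the highest Masliner-normalised natural-log median intensity across replicate spots of either probe orientation.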
For “CCTAGAAAAAAGAACTGTACATATATATATAAATAT [XGTACX_site1680]”, the “gcPBM binding intensity (ln)” value is 11.2 ± 0.61.
As for “TTAATTGAAACTTATTGTACTTTTTTTTTTTTTTTT [XGTACX_site8162]”, the figure is 11.6 ± 0.86; as for “ATAAATAAAAATAGAACACACATATGTTTTTTTTTT [CACACA_site3556]”, 9.6 ± 0.3.
As for “AGGACAAGGGTTACATGTACATATATATATATATAT [XGTACX_site901]”, the figure is 11.1 ± 0.43; as for “AAGTTATTTATATATACACACAAATATAAATAATAT [CACACA_site1228]”, 9.97 ± 0.014; as for ATTATAATTACTCTAGTGCATTATAAATATGAATAA, 9.71 ± 0.13.
Consider “CTCAAATTTATTAGTGGTACATAACCAAGGAAATAA [XGTACX_site225]”, for which the “gcPBM binding intensity (ln)” value was 11.3 ± 0.73.
“AATGTGAAAACGTGTACACATTTTATTTAATTTATC [CACACA_site5966]”: the “gcPBM binding intensity (ln)” value was determined as 11.6 ± 0.98.
For “AAAAAATAAAACATATATAATATATAATATATATAT [GTGCAC_negctrl_site447]”, the “gcPBM binding intensity (ln)” value was found to be 9.38 ± 0.23.
To “AAAAAAATAATAAAAAGTACAAAATGTAGAAAATGT [XGTACX_site5018]” belongs 11.1 ± 0.59; to “ATAAATTATATTATTGAACACACGTTTGGTAATGTT [CACACA_site2662]”, 10.1 ± 0.18; to “TTTATTAATTTATAGTGTACATATTAATAATATATT [XGTACX_site7949]”, 11.3 ± 0.68.
To “ATATATATTATATATTGTACATATTATATTCATTAT [XGTACX_site1766]” belongs 11 ± 0.48; to “CACAGACACGGACACACACACATATATAATATATAT [CACACA_site4495]”, 11.3 ± 0.86; to “AAGATATGAACATTTTGTACTTAAAAATTCAATATT [XGTACX_site7103]”, 11 ± 0.64.
As to “TTATATTAATTTTGTTGTACTATTTGTGCATTAAAT [XGTACX_site4790]”, the “gcPBM binding intensity (ln)” value came to 11.2 ± 0.8.
To “GATTATACAAAATATACACACGTGTACAGAAATATT [CACACA_site8305]” belongs 11.5 ± 0.76; to “ATATATTTATTTATATGTACATATTATATATTATAG [XGTACX_site3371]”, 11.2 ± 0.75.
Take “TACATACACAAATACACACACAAATACATACACAAA [CACACA_site704]”: the “gcPBM binding intensity (ln)” value was determined as 10.2 ± 0.41.
To “AAGGATAATATATTAGAACACACATATATATGTAAA [CACACA_site7942]” belongs 9.915 ± 0.007; to “TTTATATAAAATTATTGTACAGTTTTAATATTTTAA [XGTACX_site6807]”, 11.2 ± 0.9; to “TAAACAAATAAATATTGTACATTTTTTCCTTTTAAT [XGTACX_site5594]”, 10.8 ± 0.47.
Take “ATATTTTATCATGTTTAATATTTATGTGGACATAAA [GTGCAC_negctrl_site275]”: the “gcPBM binding intensity (ln)” value was 11 ± 0.91.
For the sequence “TATTATGTTTATTAAACATGCATATATTTATTTATA [TGCATGCA_site187]”, the “gcPBM binding intensity (ln)” value turned out to be 9.81 ± 0.22.
For the sequence “ATCAAAAACATACCTACACACACAATATGTATATAT [CACACA_site9171]”, the “gcPBM binding intensity (ln)” value was found to be 10.1 ± 0.13.
As for “TATTTTATTTTTTTATGTACACAAAAAAAAAAAAAA [XGTACX_site945]”, the figure is 11.5 ± 1; as for “TCACTATAATAATTTACACACATTTTAAGAAAATGG [CACACA_site5867]”, 10 ± 0.18; as for “ACATTTTATATATGTAGTACATATTATAGATAATTT [XGTACX_site1976]”, 11.5 ± 0.79.
As for “AGTTGGATACGAAGATGTACAATAATAATAATTAAG [XGTACX_site3561]”, the figure is 11.1 ± 0.65; as for “CTATTATCGGTTCCTACACACAAATATATATGTCTA [CACACA_site3579]”, 10.29 ± 0.078.
As for “ATATAGTTGTCATATTGTACACTTTAGGGTTGGTTA [XGTACX_site7339]”, the figure is 11 ± 0.66; as for “GCTTATTAATATCATACACACATAGATATATTTATA [CACACA_site3104]”, 10 ± 0.12.
For the sequence “AATATATAAATGTTGTGTACTAAGCAATATATTTTA [XGTACX_site2483]”, the “gcPBM binding intensity (ln)” value is 10.9 ± 0.64.
Take “ATTCGTCACATTTTTTGATATATATATATATATATA [CACACA_negctrl_site1785]”: the “gcPBM binding intensity (ln)” value is 10.2 ± 0.45.
As for “TAAAAAATATAAACTGCACACACACTAATAAAGAAA [CACACA_site8119]”, the figure is 10.18 ± 0.099.
As for “GTATATATATAAGAAGAAATATATAAATAAAATATA [CACACA_negctrl_site503]”, the figure is 9.71 ± 0.2; as for “TACAATCCATATTGTTGTACATTTATAAAATTTACA [XGTACX_site3053]”, 11.2 ± 0.76; as for “CAATGGTACATACATACACACACACTAATAAAAAAA [CACACA_site8450]”, 10.8 ± 0.69.
As for “AGCACGCACAGACACACACACATATTTATATTTATA [CACACA_site6291]”, the figure is 10.3 ± 0.28.
In the case of “TAATATAGGGGTGTTCAAATAAATTTTGTTATTTTT [CACACA_negctrl_site1203]”, the “gcPBM binding intensity (ln)” value stood at 10.3 ± 0.16.
As for “AAAAAATTTTAATATGCATGTAATTTTGCTTTTTCA [TGCATGCA_site1044]”, the figure is 9.79 ± 0.14.
With “AAATGAATATAAAATATACACACTTATATATTGAAT [CACACA_site202]”, the “gcPBM binding intensity (ln)” value was 9.71 ± 0.12.
As for “AAATTACCCTTGTGTACACATATATTATCTGTATTA [CACACA_site4514]”, the figure is 12 ± 1.4.
In the case of “ACCTATTTCAAACACACACACACACCCACAAACATA [CACACA_site977]”, the “gcPBM binding intensity (ln)” value amounted to 10.4 ± 0.4.
To “ACGAATATAGGATGTTTGCACTGTACCAATAAATGA [GTGCAC_site9808]” belongs 11 ± 0.72.
